Laboratory results published in article PMC12136788.
The list shows a part of the results.

T1: UNK ZnF1-3 (human, UniProt Q9C0B0 31-174)
T1 sequence: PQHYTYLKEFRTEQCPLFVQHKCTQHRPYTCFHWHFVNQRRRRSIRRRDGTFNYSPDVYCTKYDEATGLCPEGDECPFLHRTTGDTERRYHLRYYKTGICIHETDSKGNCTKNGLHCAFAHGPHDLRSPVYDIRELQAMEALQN

B1: chr7:65705475:65705476:+_ENSG00000169902_ENST00000304842|hu_hu|hu_hu_hu_mus_True|68_68 (ssRNA)
RNA: GGGAGUUCUACAGUCCGACGAUCUCUAUUCGGUGAUGGCACUCCAUGGCAUGCUGGCCCAGGUAAAACACAGUCACAGAACUAAUCACCAGACACGCCAAGAGUAAGUUCUGCUUCAGCUUCCCAACCAUCUUGAUGUGGUUACAACAGAGGAUUGAGCAUCA
B2: chr1:46159212:46159213:+_ENSG00000159596_ENST00000372025|hu_mus|hu_hu_hu_mus_True|48_48 (ssRNA)
RNA: GGGAGUUCUACAGUCCGACGAUCUCUGAUCCCUCCCAAGAAAGCUAGGAAACCGGCUCCAUAAGCCAUCUGAGUGAAAGCUAGGACGGGAAUAUAAGACUUUGUUAUUACCAUGAGAAGUGGGGGAGCAGUAAAGGGGAUUAACAACAGAGGAUUGAGCAUCA
B3: chr18:56819859:56819860:+_ENSG00000166562_ENST00000588875|hu_mus|hu_hu_hu_mus_True|68_78 (ssRNA)
RNA: GGGAGUUCUACAGUCCGACGAUCAACCUUGAUUACUCUGUGAACUAUCGGAAUGUCUCGUCCUUCAACUUUAAAAACAACUAUUUCACCAGCUCUGAUGGGGUCCUCCCGGAAAUUCGUGAGGAACAGCAGAUCUCCUCUGUGCAACAGAGGAUUGAGCAUCA
B4: chr5:138654669:138654670:+_ENSG00000015479_ENST00000502499|hu_hu|FALSE|FALSE (ssRNA)
RNA: GGGAGUUCUACAGUCCGACGAUCUUUCUUUAUUCUUUUAUACUUCUGGGAUAAAUGAACUCUCACUGGCUUGCCAAAUACUAACGCUGGUGUGGUUGUGUAAUAAUCCACUGCGGCCUGAGCAUCCUCUGUGGUUGCCAUUUCCAACAGAGGAUUGAGCAUCA
B5: chr1:21268426:21268427:-_ENSG00000075151_ENST00000400422|hu_mus|FALSE|FALSE (ssRNA)
RNA: GGGAGUUCUACAGUCCGACGAUCGUUCUCCUUGGCUGAUAAUUUUUCUCCAACUCCAUUCAUUUCAUUAAUUAGGAUAGUACUAGAAAUUAGCUGACUAUCAUGAGGCGCUACGCUACAGGGUUUCUUGCAUAUAUCACUGUUCAACAGAGGAUUGAGCAUCA
B6: 112303208_112303445_1358_CDS_ENSG00000064703_ENST00000369702|human|control|control (ssRNA)
RNA: GGGAGUUCUACAGUCCGACGAUCCAGUCUUACAAAAGUGGGAUCUCUCAUGUACUUUGUCAAAGCAUUAGCCAAAAAUUCGGGAUAAGUAGCUGAUACUGCCAGCAUCUGUUUACUGGCAGGCAAGGAAGAAUAAAUCCAAUUCAACAGAGGAUUGAGCAUCA
B7: chr2:5814250:5814251:-_ENSMUSG00000025816_ENSMUST00000102981|mus_hu|mus_mus_mus_hu_True|18_108 (ssRNA)
RNA: GGGAGUUCUACAGUCCGACGAUCUUCCUUUCAGGCUUCUGAAUUUCUGGUAGAACUGCACAGAAUGGUUUGAUAACUUCUAAAAAUUUGAUGCCCAUGGCUGCUGCUGGGGAGGCCCGGCGGGCACCCGCGGCCUCGGCGCUGCAACAGAGGAUUGAGCAUCA
B8: chr2:62099399:62099400:-_ENSG00000115484_ENST00000544079|hu_hu|FALSE|FALSE (ssRNA)
RNA: GGGAGUUCUACAGUCCGACGAUCGUAGGAUUCCAUACCACUCAGUGUUCGUGAAUAUUCAGUUAAUCGUAGGGCCAACUCUAUUUCUGGAGCACCACCUCCUGCAAUAAGAGCCCUCUUCUUCACUAAACAACGAAUAACACACAACAGAGGAUUGAGCAUCA
B9: chr15:80430306:80430307:+_ENSG00000086666_ENST00000558494|hu_hu|FALSE|FALSE (ssRNA)
RNA: GGGAGUUCUACAGUCCGACGAUCAUUAUCAAAAGAGAAAUCGUGCUGCAGAGAAAAGCGAUAUAUACAUACACAAUGAGAAAAUAAACUGCAAGAUUAAUGCAUGCAUGUUUAAUACUGGAAAAAUCACAGCCCUCCAAAAUUCAACAGAGGAUUGAGCAUCA
B10: chr2:128501614:128501615:-_ENSMUSG00000014355_ENSMUST00000014499|mus_mus|motif|central (ssRNA)
RNA: GGGAGUUCUACAGUCCGACGAUCAGCCACAGGGGAUUCGCCUUUGGAGAGGCUUCUGAGAUGUGCUGUCAGGGAGCUGCGGGUAGUUGCAUUCUGCAGGGUCCCUGCCUGCUCAGGGAACUUUAAAACAGCAUUCUCUUCCUCCAACAGAGGAUUGAGCAUCA
B11: chr16:94664741:94664742:+_ENSMUSG00000040785_ENSMUST00000117648|mus_hu|mus_mus_mus_hu_False|38_38 (ssRNA)
RNA: GGGAGUUCUACAGUCCGACGAUCUGGUACUGAUCUUGGUAGCUGAUAUUCAGGAGAAAGGCUGGCCAAGGGUGUAUAUAUGCUGGUGUACUGGGGCAGGCUAGGUAACACGUUUAUGUAUGCUGGCGGUGUCUGGGUGAUAUCCAACAGAGGAUUGAGCAUCA
B12: 53105790_53113655_364_3pUTR_ENSMUSG00000020361_ENSMUST00000020630|mouse|control|control (ssRNA)
RNA: GGGAGUUCUACAGUCCGACGAUCUCUUAGGACCAAAAGAAACACAUGCCGGCGUGCAGCGGUCGCUAUACUCGUUAGCGAUCGUCUCGAUGCCGCCGGCGCGGGCCACAGCGACAUAGCAGCUCUGAAAGCCCAGGUCUAUGCCAACAGAGGAUUGAGCAUCA
B13: chr1:43830971:43830972:-_ENSG00000066322_ENST00000372458|hu_hu|FALSE|FALSE (ssRNA)
RNA: GGGAGUUCUACAGUCCGACGAUCACGGAGCUGGAAGGGCUUCCGAUUAGCCAUGAUGCGAGGCCCAAGUGAGAGAACGAAGUACACGUAGGUCAGGAGAAUGGAGGUCAUUAGCAAGGGGGACCCCAUCAGAGGGUAGCCCUGCAACAGAGGAUUGAGCAUCA
B14: chr10:69676056:69676057:+_ENSG00000096717_ENST00000212015|hu_hu|FALSE|FALSE (ssRNA)
RNA: GGGAGUUCUACAGUCCGACGAUCAUGGAAAAUGUAACGAUUUGGUGGCAAAAACAGAUACUGAUUACCAUCAAGCCGCCUACUAAUCUGCUCCUUUGCCACUCUAUUAGGCCAGCAUUUUCUCACUGUUCCAGCCACUGAAGUCAACAGAGGAUUGAGCAUCA
B15: chr2:198351390:198351391:-_ENSG00000144381_ENST00000345042|hu_hu|hu_hu_hu_mus_False|38_38 (ssRNA)
RNA: GGGAGUUCUACAGUCCGACGAUCUCAUUCCCACCCUCCACAGAAAGGCUGCUUCUGAACUCUCAUGUGGUGACACAGCGCUACAGUCCUGAUGCUCACAGAAUAGUAGAGAUGCCUCAGUGAUUUAAGUUGAAAGCAGGACACCAACAGAGGAUUGAGCAUCA
B16: chr9:124914678:124914679:-_ENSG00000119421_ENST00000373768|hu_hu|FALSE|FALSE (ssRNA)
RNA: GGGAGUUCUACAGUCCGACGAUCGGGCUUAUCACAUUGAGCUCCAUAGUGAUGGGCCGCAGCUUUAAGCACAGCAGAACUAAUUUUCACCUCAUCUACUUUCAGCUCCUCUAGAGUGGGCAGCUCCACUAUCCCCGGCAUGACCAACAGAGGAUUGAGCAUCA
B17: chr8:117878989:117878990:-_ENSG00000164754_ENST00000297338|hu_mus|motif|central (ssRNA)
RNA: GGGAGUUCUACAGUCCGACGAUCCCAGAGGCCCUCGUUUACUGAGGACAAAAUGUGCGUAGAACAUUUUUCUUAUUUGCGGUGAAAUAAGAAGAAACCUGGAUCUCGGCGGGGAGCCGGGAGGGGUGGGUGGCCCGGGGAGGGCAACAGAGGAUUGAGCAUCA
B18: chr6:114281168:114281169:-_ENSG00000196591_ENST00000368632|hu_hu|hu_hu_hu_mus_True|68_88 (ssRNA)
RNA: GGGAGUUCUACAGUCCGACGAUCUUCCAUUUUUCGGUAUAAACCAUAAUUUAACAGCAAGUUAUGAGUCAUGCGGAUUCUAUGAGGCUUCAUGGGAUGACCCUGGCCAUAAUAAUAAUUGCCAAUAUCACCAUCAUAGUAGUACAACAGAGGAUUGAGCAUCA
B19: chr11:29999759:29999760:-_ENSMUSG00000020315_ENSMUST00000011877|mus_hu|motif|central (ssRNA)
RNA: GGGAGUUCUACAGUCCGACGAUCUACACUUACCAAUGAUUUAAAGGGUUUAUUAUACAUCUAGUUUUAUUAUACUUUGUACGGGAAUUAUCUCAAACGUACAAUAUAAUGUAUUUCAGCAAAAAAAAAAAAUUGAAAUUACAGCAACAGAGGAUUGAGCAUCA
B20: chr12:56508462:56508463:+_ENSMUSG00000021024_ENSMUST00000021412|mus_hu|FALSE|FALSE (ssRNA)
RNA: GGGAGUUCUACAGUCCGACGAUCACAGUCUUUCCCUCUGACAGCUACUGAUGUAAGGCCACCCUGGUUAAUAGCCUUAAAAGCAUAUUCUACUUGGUAGAGCCGACCCUCGGGUGAAAAAAUGGUAAUGUGGCGGUCAAAACCCAACAGAGGAUUGAGCAUCA
B21: chr1:182797045:182797046:+_ENSMUSG00000038806_ENSMUST00000038091|mus_mus|FALSE|FALSE (ssRNA)
RNA: GGGAGUUCUACAGUCCGACGAUCACACAAGGCAUGUAGGAGAGGAAAUACAAUUCAAAUGCCAAUGAGAUCAACAACUGAGAAAAAUCCACAAAGACAAAAAACUGAUUCUUUGAAAACCAAACAAAAUAGGUCCCUAGCUAGCAACAGAGGAUUGAGCAUCA
B22: 179959696_179961256_653_3pUTR_ENSG00000135837_ENST00000367607|human|control|control (ssRNA)
RNA: GGGAGUUCUACAGUCCGACGAUCGUGAUUUAGUGGAUUUGGAGAUUGGAGCAUUAACCCAAGAAUCAUCCAGGUAUCUACCAUCUUUUCUACUUAUUUUUCGAGUAGCACUUGUAGAAGACUUCUUGGUAUCCAUGACAGAAUCAACAGAGGAUUGAGCAUCA

biological target: T1, UNK ZnF1-3; assay: nsRBNS (natural sequence RNA bind-n-seq); RBNS binding buffer (assumed for nsRBNS): 25 mM Tris pH 7.5, 150 mM KCl, 3 mM MgCl2, 0.01% Triton X-100, 500 ug/ml BSA, 20 U/ml SUPERase-In, 4 C; UNK is unkempt and MSI1 is Musashi-1; names of the RNAs are library labels; protein concentration not given here; high values mean tight binding

Row | Binder | binding signal [enrichment R]
1 | B1 | 0.622
2 | B2 | 1.75
3 | B3 | 0.73
4 | B4 | 0.779
5 | B5 | 1.15
6 | B6 | 1.17
7 | B7 | 0.975
8 | B8 | 1.13
9 | B9 | 1.04
10 | B10 | 1.41
11 | B11 | 1.2
12 | B12 | 0.496
13 | B13 | 1.68
14 | B14 | 0.598
15 | B15 | 1.51
16 | B16 | 0.869
17 | B17 | 1.48
18 | B18 | 1.08
19 | B19 | 1.77
20 | B20 | 1.17
21 | B21 | 1.65
22 | B22 | 0.916
